The target in this assay is HLA-A2 molecule (a product of the HLA-A*0206 gene) (human).
With LQNSQVFSL (modifications not checked) [SEQ ID NO: 49 peptide], the -log Kd (Binding Experiment Data) is 5.78 -log Kd.
With SALILRGSV (modifications not checked) [SEQ ID NO: 37 peptide], the -log Kd (Binding Experiment Data) was 3.84 -log Kd.
As to FQGRGVFEL (modifications not checked) [SEQ ID NO: 48 peptide], the -log Kd (Binding Experiment Data) is 6.77 -log Kd.
On to LIFLARSAL (modifications not checked) [SEQ ID NO: 52 peptide], for which the -log Kd (Binding Experiment Data) is 3.73 -log Kd.
As for LILYDKEEI (modifications not checked) [SEQ ID NO: 51 peptide], the figure is 5.38 -log Kd.

For the origin of these results see patent US20090023895A1.
